Reference: the supplement of paper PMC8728848
The other results are listed elsewhere or left out.

Columns and labels:
Experiment in all cases: glycan array binding signal (z-score within array); higher = stronger binding
Conditions in all cases: glycan notation: IUPAC condensed, linker removed
[1] = target: Fuc(a1-2)[GalNAc(a1-3)]Gal(b1-3)GlcNAc(b1-3)GalNAc
In short: (§1)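 Negative Z-scores can be read as non-binding. The Z-score is calculated within each array and then averaged across arrays of one protein sequence at different concentrations or buffers and across linkers. Arrays, 3228 in all, were curated from the Consortium for Functional Glycomics database and kept only where the protein sequence was available.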

[2] = target: Fuc(a1-2)[GalNAc(a1-3)]Gal(b1-3)GlcNAc(b1-6)GalNAc
In short: as §1

[3] = target: Fuc(a1-2)[GalNAc(a1-3)]Gal(b1-4)Glc
In short: as §1

[4] = target: Fuc(a1-2)[GalNAc(a1-3)]Gal(b1-4)GlcNAc
In short: as §1

[5] = target: Fuc(a1-2)[GalNAc(a1-3)]Gal(b1-4)GlcNAc(b1-2)Man
In short: as §1

[6] = target: Fuc(a1-2)[GalNAc(a1-3)]Gal(b1-4)GlcNAc(b1-2)Man(a1-3)[Fuc(a1-2)[GalNAc(a1-3)]Gal(b1-4)GlcNAc(b1-2)Man(a1-6)]Man(b1-4)GlcNAc(b1-4)GlcNAc
In short: as §1

[7] = target: Fuc(a1-2)[GalNAc(a1-3)]Gal(b1-4)GlcNAc(b1-2)Man(a1-3)[Fuc(a1-2)[GalNAc(a1-3)]Gal(b1-4)GlcNAc(b1-2)Man(a1-6)]Man(b1-4)GlcNAc(b1-4)[Fuc(a1-6)]GlcNAc
In short: as §1

[8] = target: Fuc(a1-2)[GalNAc(a1-3)]Gal(b1-4)GlcNAc(b1-3)Gal(b1-4)GlcNAc
In short: as §1

[9] = target: Fuc(a1-2)[GalNAc(a1-3)]Gal(b1-4)GlcNAc(b1-3)Gal(b1-4)GlcNAc(b1-3)Gal(b1-4)GlcNAc
In short: as §1

[10] = target: Fuc(a1-2)[GalNAc(a1-3)]Gal(b1-4)GlcNAc(b1-3)GalNAc
In short: as §1

[11] = target: Fuc(a1-2)[GalNAc(a1-3)]Gal(b1-4)GlcNAc(b1-3)[Fuc(a1-2)[GalNAc(a1-3)]Gal(b1-4)GlcNAc(b1-6)]GalNAc
In short: as §1

[12] = target: Fuc(a1-2)[GalNAc(a1-3)]Gal(b1-4)GlcNAc(b1-6)GalNAc
In short: as §1

[13] = target: Fuc(a1-2)[GalNAc(a1-3)]Gal(b1-4)[Fuc(a1-3)]GlcNAc
In short: as §1

[14] = target: Fuc(a1-2)[GalNAc(a1-3)]Gal(b1-4)[Fuc(a1-3)]GlcNAc(b1-3)GalNAc
In short: as §1

[15] = target: Fuc(a1-2)[GalNAc(a1-4)]Gal(b1-4)GlcNAc
In short: as §1

[16] = target: Fuc(a1-2)[GalNAc(b1-3)]Gal
In short: as §1

Fuc(a1-3)GlcNAc = target: Fuc(a1-3)GlcNAc
In short: as §1

[17] = target: Fuc(a1-3)[Gal(b1-4)]Glc6S
In short: as §1

[18] = target: Fuc(a1-3)[Gal(b1-4)]GlcNAc
In short: as §1

[19] = target: Fuc(a1-3)[Gal(b1-4)]GlcNAc(b1-2)Man
In short: as §1

[20] = target: Fuc(a1-3)[Gal(b1-4)]GlcNAc(b1-2)Man(a1-3)[Fuc(a1-3)[Gal(b1-4)]GlcNAc(b1-2)Man(a1-6)]Man(b1-4)GlcNAc(b1-4)GlcNAc
In short: as §1

[21] = target: Fuc(a1-3)[Gal(b1-4)]GlcNAc(b1-2)Man(a1-3)[Fuc(a1-3)[Gal(b1-4)]GlcNAc(b1-2)Man(a1-6)]Man(b1-4)GlcNAc(b1-4)[Fuc(a1-6)]GlcNAc
In short: as §1

[22] = target: Fuc(a1-3)[Gal(b1-4)]GlcNAc(b1-3)Gal(b1-3)[Fuc(a1-4)]GlcNAc
In short: as §1

[23] = target: Fuc(a1-3)[Gal(b1-4)]GlcNAc(b1-3)Gal(b1-4)[Fuc(a1-3)]GlcNAc
In short: as §1

[24] = target: Fuc(a1-3)[Gal(b1-4)]GlcNAc(b1-3)Gal(b1-4)[Fuc(a1-3)]GlcNAc(b1-3)Gal(b1-4)[Fuc(a1-3)]GlcNAc
In short: as §1

[25] = target: Fuc(a1-3)[Gal(b1-4)]GlcNAc(b1-3)GalNAc
In short: as §1

[26] = target: Fuc(a1-3)[Gal(b1-4)]GlcNAc(b1-6)GalNAc
In short: as §1

[27] = target: Fuc(a1-3)[Gal(b1-4)]GlcNAc(b1-6)[Gal(b1-3)GlcNAc(b1-3)]Gal(b1-4)Glc
In short: as §1

[28] = target: Fuc(a1-3)[Gal(b1-4)]GlcNAc6S
In short: as §1

[29] = target: Fuc(a1-3)[Gal3S(b1-4)]Glc
In short: as §1

[30] = target: Fuc(a1-3)[Gal3S(b1-4)]GlcNAc
In short: as §1

[31] = target: Fuc(a1-3)[Gal3S(b1-4)]GlcNAc6S
In short: as §1

[32] = target: Fuc(a1-3)[GalNAc(b1-4)]GlcNAc
In short: as §1

[33] = target: Fuc(a1-3)[GalNAc(b1-4)]GlcNAc6S
In short: as §1

Fuc(a1-4)GlcNAc = target: Fuc(a1-4)GlcNAc
In short: as §1

Fuc(b1-3)GlcNAc = target: Fuc(b1-3)GlcNAc
In short: as §1

Gal(a1-2)Gal = target: Gal(a1-2)Gal
In short: as §1

B1: AT1G73650(15) (Arabidopsis thaliana), F4HRY1 (protein)
chain: MGTVLDSHFLALTAIVTVIYQFIFFVITALFKFDQVTDFAGSTNFVILAVLTLVLKASWHFRQIVLTLLVVVWGLRLGIFLLMETRILQWGEDRRFDEQRGNIVRLIIFWTLQAVWVWTVSLPLTLVNASDGGGSLKPADVIGWTMETWVFGFLIEAAADQQKLSFKNSPENRGKWCDVGVWKYSRHPNYFGEMETLLWWGIFVAASPVLEGAEYLVIFGPLFLTLLLLFVSGIPLLEASADKKHGNSGAYRSYKKTTSPLILFPRGVYGNLPGWFKTVFLFEFPFYSRNLPQEGRLQNSKEKEVKDD
glycan array binding signal (z-score) [1]: 0.226 | glycan array binding signal (z-score) [2]: -0.549 | glycan array binding signal (z-score) [3]: -0.567 | glycan array binding signal (z-score) [4]: -0.398 | glycan array binding signal (z-score) [5]: -0.431 | glycan array binding signal (z-score) [6]: -0.212 | glycan array binding signal (z-score) [7]: -0.593 | glycan array binding signal (z-score) [8]: -0.687 | glycan array binding signal (z-score) [9]: -0.286 | glycan array binding signal (z-score) [10]: -0.279 | glycan array binding signal (z-score) [11]: -0.573 | glycan array binding signal (z-score) [12]: -0.351 | glycan array binding signal (z-score) [13]: -0.543 | glycan array binding signal (z-score) [14]: 2.17 | glycan array binding signal (z-score) [15]: -0.392 | glycan array binding signal (z-score) [16]: -0.563 | glycan array binding signal (z-score) (Fuc(a1-3)GlcNAc): 0.234 | glycan array binding signal (z-score) [17]: 2.65 | glycan array binding signal (z-score) [18]: -0.444 | glycan array binding signal (z-score) [19]: -0.059 | glycan array binding signal (z-score) [20]: 1.74 | glycan array binding signal (z-score) [21]: -0.573 | glycan array binding signal (z-score) [22]: -0.557 | glycan array binding signal (z-score) [23]: -0.135 | glycan array binding signal (z-score) [24]: -0.45 | glycan array binding signal (z-score) [25]: 0.945 | glycan array binding signal (z-score) [26]: 0.964 | glycan array binding signal (z-score) [27]: -0.111 | glycan array binding signal (z-score) [28]: -0.428 | glycan array binding signal (z-score) [29]: -0.238 | glycan array binding signal (z-score) [30]: 3.17 | glycan array binding signal (z-score) [31]: -0.142 | glycan array binding signal (z-score) [32]: 1.23 | glycan array binding signal (z-score) [33]: -0.217 | glycan array binding signal (z-score) (Fuc(a1-4)GlcNAc): 0.957 | glycan array binding signal (z-score) (Fuc(b1-3)GlcNAc): -0.406 | glycan array binding signal (z-score) (Gal(a1-2)Gal): -0.699
